Assay results as given in the supplement of paper PMC11417369.
The list shows a part of the results.

Tested on: PfHDP1 homeodomain (GST-tagged)
Test: gcPBM binding intensity (ln(normalized median fluorescence intensity)); higher = stronger DNA binding
Procedure, shortened: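 Alexa488 anti-GST antibody, scanned at 488 nm, detected GST-tagged P. falciparum DNA-binding domains that had been expressed in E. coli and incubated for 1 h on an Agilent 4 × 180k array. The array carried primer-extended double-stranded 36-bp intergenic genomic probes and negative controls. Binding intensity is the highest Masliner-normalised natural-log median intensity across replicate spots of either orientation of each probe.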

Sequence	gcPBM binding intensity (ln)
TTAATAATTAATTATAGTACACATTTATATTAATAA [XGTACX_site190]	6.34
TTATTTAAAAAATTTTTAAATATACAAAAAAAAAAA [TGCATGCA_negctrl_site464]	6.24
TTTAATTTTCGGTGTGCACACAACTATGAGTTTTTA [CACACA_site3034]	11.2
AAAAAAAAAAAAAAAGCATGCACATATTATTTTTTT [TGCATGCA_site416]	7.94
ATTATATTTTGTAAATGTACATTTATATATTTTGTA [XGTACX_site1226]	6.61
ATTCATAAACGTGTGTTAATATGAATTTAAACATAA [XGTACX_negctrl_site213]	6.27
ATATAAATAAAATATACACACATAAATATAACGACA [CACACA_site1637]	7
AACATTTCCTTTCTGTGTACATATAAACCCATCTAT [XGTACX_site2071]	7.29
ACGAAGATTTATCTTGCACACGCAAAAAAAAAAAAA [CACACA_site7933]	7.58
TTTTTTTTTTTTTTTTTTTTTTTTTTTTTTTTTTTT [CACACA_negctrl_site104]	7.42
GTATAAAAAAATAAAAGTACAAAAAAAAAAGACTGA [XGTACX_site186]	6.51
AAATAAAAAATATGAACACACATATATAACAAAATA [CACACA_site261]	6.79
TACTGGTATCGATATAGTACATATAATATTATGTTA [XGTACX_site7490]	6.53
AATTGAATAAATTAAACATGCACAGATGTTCTATTT [TGCATGCA_site692]	7.37
AGGATTAAAAAAACATGTACGTATTTAAATATATTT [XGTACX_site8774]	6.71
AAAAAAAAAAAAAACACACACACACCCATAAATATA [CACACA_site151]	6.87
TTTGTGTTTATAAATTGTACAAAGGTGCAAGAAGAA [XGTACX_site2159]	9.69
TGTTGTCCTAATTCTACACACAATGGTTTATTAAAA [CACACA_site2648]	6.89
CATATACTTCTGTGCACACGAATATTTTTCTTCTTC [CACACA_site1407]	11.2
TTTTAACGTAAAACATTGATGATATAAAAAATAGGA [GTGCAC_negctrl_site540]	6.75
TATACTCATATTTTTACACACATATTTTTTCATATA [CACACA_site5412]	6.99
AGGATATATAAGTATACACACATATTTATATTTATA [CACACA_site6239]	6.34
TTAAAATATACATAAACACACACAAAACGTTTAAGA [CACACA_site8267]	7.05

Sequence	gcPBM binding intensity (ln)
AATTTAAAATATATAGTACACACGTGAACACAAATA [CACACA_site416]	6.61
TGTATTTATAATAAAACACACATTTTTAATGTGCTC [CACACA_site4908]	6.36
TAACAATAACTTTATACACACATAATATATATATAT [CACACA_site3543]	8.65
TGTAAATTATAACGTGCACACATATTTAAAATGAAA [CACACA_site8915]	9.88
AGATATTTATTGAGTGCATGTTATAAAGGGAAAAAA [TGCATGCA_site88]	7.99
ATATAGAAAATGCATACACACTTTATAAATATATTT [CACACA_site6553]	6.67
ATCCACTTTTTGAAGACACACACAAAAAAAAAAAAA [CACACA_site8818]	6.49
AATTAGATGGATAAATGTACATAATGTGAATATATT [XGTACX_site86]	6.93
TAAAAATAATTTGCATGTACATAGGTCGATGTATTT [XGTACX_site1357]	6.42
AAAAAAAAAAAACACACACACAATAGTATATAAATC [CACACA_site956]	6.71
ATATGATCATAAAACACACACACAAAAAAAAAAAAA [CACACA_site1806]	6.32
TATTTTTATTATATGGTGCATATATACATACATATA	9.96
TTCAAGCCCTTCTGCTTACACACAGTAATTATTGTG [CACACA_site2952]	6.56
AAGTGCATATTATTCACACATAATAATTGTATACCT [CACACA_site5965]	10.5
CAAAATAATAATAAAAGTACTAACATATTTATGAAA [XGTACX_site6078]	6.27
TTCTTTTTATTTATATTTTCCCCTCTCTATAGCTAT [XGTACX_negctrl_site102]	7.06
ATAATTCAAAAAAACACACAAATTACAAAATAAACT [CACACA_site6264]	6.73
ATATTTCTGTGTGGATGTACATTATTAGCAGGCTTT [XGTACX_site6496]	6.8
AAAATATATACACAAACATGCATATAATAAATAAAT [TGCATGCA_site711]	6.52
AGGTAAAAATGGTAAGTGCATTAATGATAAAAAATG	9.1
GAATATTCACATACTTGTACATATATATATATATAT [XGTACX_site7302]	9.35
AAAAAAAAAAAACACACACACACACCGACACATACA [CACACA_site5576]	6.76
